Data taken from the antibiotic and cytotoxicity screens of Wong et al. (2023).
The other results are listed elsewhere or left out.

Assays:
[1] = test system: HSkMC (human skeletal muscle cells); experiment: cytotoxicity call (relative viability < 0.9); details: 10 µM
[2] = test system: HepG2; experiment: cytotoxicity call (relative viability < 0.9); details: 10 µM
[3] = test system: S. aureus RN4220; experiment: growth inhibition call (relative growth <= 0.2); details: 50 µM

COCC(=O)Nc1ccc2c(c1)OC[C@@H](C)N(C(=O)c1ccccc1F)C[C@@H](C)[C@H](OC)CN(C)C2=O
inactive: cytotoxicity call [1] | cytotoxicity call [2] | growth inhibition call [3]

C[C@H]1CN([C@@H](C)CO)C(=O)c2cccc(NC(=O)c3cnccn3)c2O[C@H]1CN(C)S(=O)(=O)c1cn(C)cn1
inactive: cytotoxicity call [1] | cytotoxicity call [2] | growth inhibition call [3]

CC(=O)Nc1c(O)[nH]c(SCC(=O)N2CCOCC2)nc1=O
inactive: cytotoxicity call [1] | cytotoxicity call [2] | growth inhibition call [3]

C[C@@H]1CN([C@H](C)CO)C(=O)c2cccc(NC(=O)c3cnccn3)c2O[C@H]1CN(C)S(=O)(=O)c1ccc(Cl)cc1
inactive: cytotoxicity call [1] | cytotoxicity call [2] | growth inhibition call [3]

N=C(NCCC[C@H](N)C(=O)O)N[C@@H](CCC(=O)O)C(=O)O
inactive: cytotoxicity call [1] | cytotoxicity call [2] | growth inhibition call [3]

Cc1ccc(S(=O)(=O)N(C)C[C@@H]2Oc3ncc(C#CC4(O)CCCC4)cc3C(=O)N([C@@H](C)CO)C[C@@H]2C)cc1
inactive: cytotoxicity call [1] | cytotoxicity call [2] | growth inhibition call [3]

NCCc1nc(-c2ccccc2)cs1
inactive: cytotoxicity call [1] | cytotoxicity call [2] | growth inhibition call [3]

COc1ccc(NC(=O)Nc2ccc3c(c2)C(=O)N([C@H](C)CO)C[C@H](C)[C@@H](CN(C)Cc2ccc4c(c2)OCO4)OCCCC[C@H](C)O3)cc1
inactive: cytotoxicity call [1] | cytotoxicity call [2] | growth inhibition call [3]

CS(=O)(=O)N(CC(=O)O)Cc1ccccc1
inactive: cytotoxicity call [1] | cytotoxicity call [2] | growth inhibition call [3]

C[C@@H]1CCCCO[C@H](CN(C)S(=O)(=O)c2ccc(F)cc2)[C@H](C)CN([C@H](C)CO)C(=O)c2cc(NS(=O)(=O)c3cn(C)cn3)ccc2O1
inactive: cytotoxicity call [1] | cytotoxicity call [2] | growth inhibition call [3]
